According to PubChem BioAssay (NCI):
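96-well plates; 48 h exposure; 5 concentrations. Endpoints by linear interpolation between flanking doses. Not reached: highest tested concentration assigned. GI50: concentration for 50% inhibition of growth.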 For part of its entries the source gives two or more results. This is not the full list of results. An entry can have further records. For some assays here: A record mostly stands for its own series of concentrations, which the source does not state; some values may only mark the edge of a range. What stands in brackets tells the records apart. The letters are not those of the source and start again with each entry. For some assays here: The records of an entry repeat one measurement across runs, samples, wells, individuals or studies.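 TGI denotes the concentration required for complete inhibition of growth.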

How the values were obtained:
Experiment in all cases: NCI tumour cell line growth inhibition, 48 h
SF-268 CNS = system: SF-268 CNS
HOP-62 NSCLC = system: HOP-62 NSCLC
MALME-3M melanoma = system: MALME-3M melanoma
SK-MEL-28 melanoma = system: SK-MEL-28 melanoma
CAKI-1 renal = system: CAKI-1 renal
MCF7 breast = system: MCF7 breast
LOX IMVI melanoma = system: LOX IMVI melanoma
A549 NSCLC = system: A549 NSCLC
OVCAR-5 ovarian = system: OVCAR-5 ovarian
SF-295 CNS = system: SF-295 CNS
HL-60(TB) leukemia = system: HL-60(TB) leukemia
UACC-257 melanoma = system: UACC-257 melanoma
MOLT-4 leukemia = system: MOLT-4 leukemia
786-0 renal = system: 786-0 renal
MDA-MB-435 = system: MDA-MB-435
NCI-H522 lung = system: NCI-H522 lung
SK-OV-3 ovarian = system: SK-OV-3 ovarian
MDA-N = system: MDA-N
SW-620 colon = system: SW-620 colon
U251 CNS = system: U251 CNS
OVCAR-8 ovarian = system: OVCAR-8 ovarian
HCT-116 colon = system: HCT-116 colon
CCRF-CEM leukemia = system: CCRF-CEM leukemia
SNB-19 CNS = system: SNB-19 CNS
PC-3 prostate = system: PC-3 prostate
HOP-18 NSCLC = system: HOP-18 NSCLC
KM12 colon = system: KM12 colon
HT29 colon = system: HT29 colon
EKVX NSCLC = system: EKVX NSCLC
NCI/ADR-RES ovarian = system: NCI/ADR-RES ovarian
RPMI-8226 leukemia = system: RPMI-8226 leukemia
MDA-MB-231 breast = system: MDA-MB-231 breast
A498 renal = system: A498 renal
NCI-H226 lung = system: NCI-H226 lung
OVCAR-3 ovarian = system: OVCAR-3 ovarian
SF-539 CNS = system: SF-539 CNS
OVCAR-4 ovarian = system: OVCAR-4 ovarian
UO-31 renal = system: UO-31 renal
UACC-62 melanoma = system: UACC-62 melanoma
DU-145 prostate = system: DU-145 prostate
HOP-92 NSCLC = system: HOP-92 NSCLC
SNB-75 CNS = system: SNB-75 CNS
T-47D breast = system: T-47D breast
RXF 393 renal = system: RXF 393 renal
IGROV1 ovarian = system: IGROV1 ovarian
COLO 205 colon = system: COLO 205 colon
SK-MEL-5 melanoma = system: SK-MEL-5 melanoma
HCC-2998 colon = system: HCC-2998 colon

SMILES: COc1ccc(CC2C(=O)NC(C)C(=O)N(C)C3Cc4ccc(cc4)Oc4cc(ccc4O)CC(C(=O)NC(C)C(=O)NC(C)C(=O)N2C)N(C)C3=O)cc1 (stereo not drawn)
- TGI (SF-268 CNS): 0.26 nM and 12.2 nM
- TGI (HOP-62 NSCLC): 246 nM, 4.4 µM, 71.7 nM
- TGI (MALME-3M melanoma): 8.5 nM, 117 nM, 27.6 nM
- TGI (SK-MEL-28 melanoma): 257 nM and 22.3 nM
- TGI (CAKI-1 renal): 23.2 µM [1 test] and 789 nM [mean of 3 tests]
- TGI (MCF7 breast): 1.01 nM and 32.4 nM
- TGI (LOX IMVI melanoma): 0.157 nM and 124 nM
- GI50 (A549 NSCLC): 0.843 nM, 50.9 nM [1 test] and 17.5 nM [mean of 4 tests]
- GI50 (OVCAR-5 ovarian): 0.141 nM [1 test] and 17.5 nM [mean of 4 tests]
- GI50 (SF-295 CNS): 0.305 nM, 11.3 nM [1 test] and 17.5 nM [mean of 4 tests]
- TGI (SF-295 CNS): 17.9 nM, 18.2 µM [1 test] and 80.9 nM [mean of 4 tests]
- TGI (HL-60(TB) leukemia): 1.57 nM and 377 nM
- TGI (UACC-257 melanoma): 0.64 nM and 22.1 nM
- TGI (MOLT-4 leukemia): 58.8 nM and 697 nM
- TGI (786-0 renal): 11.3 nM and 117 nM
- TGI (MDA-MB-435): 1.16 nM and 13.9 nM
- TGI (NCI-H522 lung): 0.324 nM and 106 nM
- TGI (SK-OV-3 ovarian): 70.6 µM and 135 nM
- TGI (MDA-N): 0.366 nM and 10.6 nM
- TGI (SW-620 colon): 877 nM, 12.6 µM, 849 nM
- TGI (U251 CNS): 0.751 nM and 19.1 nM

SMILES: CC[C@@]1(OC(=O)CN(C)C)C(=O)OCc2c1cc1n(c2=O)Cc2cc3ccccc3nc2-1
- TGI (SF-268 CNS): 6.72 µM and > 100 µM
- TGI (OVCAR-8 ovarian): 1.95 µM and > 100 µM
- TGI (HCT-116 colon): 3.41 µM and > 100 µM
- TGI (CCRF-CEM leukemia): 44 nM and 4.41 µM
- TGI (SK-MEL-28 melanoma): 7.58 µM and > 100 µM
- TGI (SNB-19 CNS): 9.14 µM and > 100 µM
- TGI (PC-3 prostate): 9.92 µM and > 100 µM
- TGI (HOP-18 NSCLC): 1.71 µM and 82.3 µM
- TGI (KM12 colon): 2.52 µM and > 65 µM
- TGI (HT29 colon): 7.21 µM and > 100 µM
- TGI (EKVX NSCLC): 9.99 µM and > 100 µM
- TGI (NCI/ADR-RES ovarian): 315 nM and > 100 µM
- TGI (SW-620 colon): 4.64 µM and > 100 µM
- TGI (RPMI-8226 leukemia): 414 nM and > 44.6 µM

SMILES: C=CCN1C(=O)/C(=C/c2ccc(Cl)cc2)N=C1SC1OC(COC(C)=O)C(OC(C)=O)C(OC(C)=O)C1OC(C)=O (stereo not drawn)
- TGI (HL-60(TB) leukemia): > 100 µM [sample A, mean of 2 tests] and 9.8 µM [sample B, 1 test]
- GI50 (MOLT-4 leukemia): > 64.4 µM [sample A, mean of 2 tests] and 5.01 µM [sample B, 1 test]

SMILES: COc1cc(OC)cc(N2CCN(C(=O)Nc3nc4cc(F)ccc4nc3OC)CC2)c1
- TGI (MDA-MB-231 breast): 22.1 µM [sample A, mean of 2 tests] and 284 nM [sample B, 1 test]
- TGI (A498 renal): 1.37 µM [sample A, mean of 2 tests] and 77.1 nM, 68.1 nM [sample B, 1 test]
- TGI (NCI-H226 lung): > 100 µM [sample A, mean of 2 tests] and 615 nM, 70.2 µM [sample B, 1 test]
- TGI (HL-60(TB) leukemia): 55.9 nM [sample A, mean of 2 tests] and 93.3 nM, 5.71 µM [sample B, 1 test]
- TGI (OVCAR-3 ovarian): 15.4 µM [sample A, mean of 2 tests] and 68.7 nM, 71.8 nM [sample B, 1 test]
- TGI (HT29 colon): 22.2 µM [sample A, mean of 2 tests] and 84.7 nM [sample B, 1 test]
- TGI (SF-539 CNS): 923 nM [sample A, mean of 2 tests] and 70 nM, 49.9 nM [sample B, 1 test]
- GI50 (OVCAR-4 ovarian): 960 nM [sample A, mean of 2 tests] and 86 nM, 57.4 nM [sample B, 1 test]

SMILES: COc1cc(OC)c(/C=C/S(=O)(=O)Cc2ccc(OC)c(NCC(=O)O)c2)c(OC)c1
- GI50 (UO-31 renal): 200 nM [sample A, mean of 2 tests] and 13.6 µM [sample B, mean of 2 tests]
- GI50 (MALME-3M melanoma): 283 nM [sample A, mean of 2 tests] and > 100 µM [sample B, 1 test]
- GI50 (CAKI-1 renal): 74.8 nM [sample A, mean of 2 tests] and 1.01 µM [sample B, mean of 2 tests]
- TGI (HL-60(TB) leukemia): 614 nM [sample A, mean of 2 tests] and > 100 µM [sample B, mean of 2 tests]
- GI50 (UACC-62 melanoma): 38.6 nM [sample A, 1 test] and 1.33 µM [sample B, mean of 2 tests]
- TGI (DU-145 prostate): > 10 µM [sample A, mean of 2 tests] and 954 nM [sample B, 1 test]
- GI50 (HOP-92 NSCLC): 252 nM [sample A, mean of 2 tests] and 24.3 nM [sample B, 1 test]
- TGI (HOP-92 NSCLC): > 10 µM [sample A, mean of 2 tests] and 853 nM [sample B, 1 test]
- TGI (SF-539 CNS): 746 nM [sample A, 1 test] and > 100 µM [sample B, 1 test]

SMILES: CCCCCCCCCCCCCCCC(=O)N[C@H]1CCc2cc(OC)c(OC)c(OC)c2-c2ccc(SC)c(=O)cc21
- TGI (EKVX NSCLC): 7.49 µM and 94.2 µM
- TGI (SNB-75 CNS): 680 nM and > 100 µM

SMILES: Cc1cc(N)c2ccccc2[n+]1CCCCCCCCCC[n+]1c(C)cc(N)c2ccccc21
- GI50 (SF-268 CNS): 2.86 µM [sample A, 1 test] and 209 nM [sample B, mean of 2 tests]
- TGI (T-47D breast): 50 µM [sample A] and 1.24 µM [sample B]
- TGI (HCT-116 colon): 13.8 µM, > 100 µM [sample A] and 2.89 µM [sample B]
- GI50 (RXF 393 renal): 1.8 µM [sample A, 1 test] and 176 nM [sample B, mean of 2 tests]
- TGI (RXF 393 renal): 40.2 µM, 5.8 µM [sample A] and 1.65 µM [sample B]
- TGI (MALME-3M melanoma): 17 µM, 3.87 µM [sample A] and 1.04 µM [sample B]
- GI50 (SNB-19 CNS): 2.38 µM [sample A, 1 test] and 171 nM [sample B, mean of 2 tests]
- GI50 (MCF7 breast): 1.75 µM [sample A, 1 test] and 141 nM [sample B, mean of 2 tests]
- TGI (MCF7 breast): 3.25 µM, > 100 µM [sample A] and 3.41 µM [sample B]
- TGI (A498 renal): 50 µM [sample A] and 1.01 µM [sample B]
- TGI (IGROV1 ovarian): 16.9 µM, > 100 µM [sample A] and 7.32 µM [sample B]
- GI50 (UACC-257 melanoma): 1.95 µM [sample A, 1 test] and 126 nM [sample B, mean of 2 tests]
- TGI (UACC-257 melanoma): 48 µM, 14.1 µM [sample A] and 859 nM [sample B]
- GI50 (OVCAR-3 ovarian): 6.56 µM [sample A, 1 test] and 378 nM [sample B, mean of 2 tests]
- TGI (OVCAR-3 ovarian): 25.8 µM, > 100 µM [sample A] and 1.44 µM [sample B]
- TGI (UACC-62 melanoma): 9.59 µM [sample A] and 841 nM [sample B]
- GI50 (EKVX NSCLC): 2.23 µM [sample A, 1 test] and 127 nM [sample B, mean of 2 tests]
- GI50 (COLO 205 colon): 1.69 µM [sample A, 1 test] and 93.5 nM [sample B, mean of 2 tests]
- TGI (COLO 205 colon): 8.21 µM, 5.63 µM [sample A] and 197 nM [sample B]
- TGI (HOP-92 NSCLC): 50 µM [sample A] and 1.45 µM [sample B]
- TGI (SK-MEL-5 melanoma): 1.62 µM, 1.9 µM [sample A] and 170 nM [sample B]
- GI50 (SK-OV-3 ovarian): 7.01 µM [sample A, 1 test] and 273 nM [sample B, 1 test]
- TGI (SK-OV-3 ovarian): 26.7 µM, > 100 µM [sample A] and 1.69 µM [sample B]
- GI50 (OVCAR-4 ovarian): 28.6 µM [sample A, 1 test] and 192 nM [sample B, mean of 2 tests]
- TGI (OVCAR-4 ovarian): 50 µM, > 100 µM [sample A] and 5.27 µM [sample B]

SMILES: CCCOc1c2cc(COC3OC(CO)C(O)C(O)C3O)cc1Cc1cc(COC3OC(CO)C(O)C(O)C3O)cc(c1OCCC)Cc1cc(COC3OC(CO)C(O)C(O)C3O)cc(c1OCCC)Cc1cc(COC3OC(CO)C(O)C(O)C3O)cc(c1OCCC)C2 (stereo not drawn)
- GI50 (OVCAR-4 ovarian): 3.76 µM [sample A, 1 test] and > 100 µM [sample B, 1 test] and 25.6 µM [sample C, 1 test]

SMILES: C=C(C)[C@]12CC(C)C34OC(/C=C\C=C\CCCCCCCCC)(O[C@@H]1[C@@H]3[C@@H]1O[C@]1(CO)[C@@H](O)[C@]1(O)C(=O)C(C)=C[C@@H]41)O2 (stereo partly drawn)
- TGI (HCC-2998 colon): 293 nM and 11.7 µM
